# Laboratory results reported in patent publication US20100183597.
# B1: Recombinant mouse GST-Drak2 (protein)
# chain: [about 200 residues not written out]MSRRRFDCRSVSGLLTTTPQTPIKTENFNNFYTLTPKELGRGKFAVVRQCISKSTGQEYAAKSLKKRRRGQDCRAEILHEIAVLELARSCPHVINLHEVYENATEIILVLEYAAGGEIFNLCLPELAEMVSENDVIRLIKQILEGVHYLHQNNIVHLDLKPQNILLSSIYPLGDIKIVDFGMSRKIGNASELREIMGTPEYLAPEILNYDPITTATDMWNIGIIAYMLLTHTSPFVGEDNQETYLNISQVNVDYSEEMFSSVSQLATDFIQSLLVKNPEKRPTAESCLSHSWLQQWDFGSLFHPEETSGSSQIQDLTLRSSEEKTSKSSCNGSCGAREDKENIPEDGSLVSKRFRFDDSLPSPHELVPDLFC
# Biological target: p70S6 kinase of human origin on the Invitrogen Protoarray Kinase Substrate Identification Kit, P23443
# Sequence (P23443 whole entry, looked up): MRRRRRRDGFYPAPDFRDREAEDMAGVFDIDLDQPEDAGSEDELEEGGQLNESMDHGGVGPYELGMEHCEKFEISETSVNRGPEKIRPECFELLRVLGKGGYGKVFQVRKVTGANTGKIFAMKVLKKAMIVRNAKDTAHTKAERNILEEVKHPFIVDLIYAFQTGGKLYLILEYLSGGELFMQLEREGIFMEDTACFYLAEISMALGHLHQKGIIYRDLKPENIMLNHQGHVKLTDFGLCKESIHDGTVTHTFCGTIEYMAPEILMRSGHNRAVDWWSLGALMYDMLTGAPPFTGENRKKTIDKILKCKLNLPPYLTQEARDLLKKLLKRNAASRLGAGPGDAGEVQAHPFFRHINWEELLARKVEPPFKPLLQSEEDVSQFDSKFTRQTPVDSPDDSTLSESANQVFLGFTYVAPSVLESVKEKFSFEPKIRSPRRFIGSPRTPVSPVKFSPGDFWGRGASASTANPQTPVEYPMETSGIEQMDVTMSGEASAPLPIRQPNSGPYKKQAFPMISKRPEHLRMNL
protein,measurement,value
B1,Z-score in the Invitrogen Protoarray Kinase Substrate Identification Kit (phosphorylation of arrayed proteins),"Five proteins showed a Z-score above 3, a threshold indicating more that 99.9% confidence. Among the 5 proteins, one was p70S6 kinase."
